The source of these data is paper PMC12339391.

Assay [1] deals with HsPEX39-FLAG-HA (C-terminally FLAG-HA-tagged human PEX39) (human) (UniProt Q5I0X4). The assay is described as follows: co-IP; anti-FLAG M2 magnetic beads; lysates of HCT116 or HEK293T cells stably expressing the FLAG-HA-tagged bait; 50 mM Tris-HCl pH 7.5, 150 mM NaCl, 0.5% NP-40 alternative, 1 mM DTT, 4 h at 4 °C; washes with 400 mM NaCl; immunoblot of endogenous prey. In general terms: In western blotting, separated proteins are transferred to a membrane and probed.

Assay [2] concerns the target T1, [^35S]H6PEX7 (radiolabelled, N-terminally His-tagged human PEX7) (human) (UniProt O00628).
T1 sequence (chain, [35S]methionine): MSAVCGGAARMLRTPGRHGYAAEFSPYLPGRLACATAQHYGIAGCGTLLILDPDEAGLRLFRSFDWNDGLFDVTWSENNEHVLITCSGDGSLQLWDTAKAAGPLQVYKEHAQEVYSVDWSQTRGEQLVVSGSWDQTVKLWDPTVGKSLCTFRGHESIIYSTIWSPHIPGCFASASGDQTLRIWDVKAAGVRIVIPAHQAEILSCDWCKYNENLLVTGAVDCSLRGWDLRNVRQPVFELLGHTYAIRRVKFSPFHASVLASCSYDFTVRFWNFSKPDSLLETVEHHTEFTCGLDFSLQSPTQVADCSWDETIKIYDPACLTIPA
Description: native gel or EMSA; [35S]His-PEX7 (0.4 μl reticulocyte lysate) pre-incubated with ONE recombinant protein (HsPEX39 variant 4 μg, His-PEX5(1–324) 1 μg, His-PHYH 100 ng or NtPEX13 variant 4 μg) in 20 μl 20 mM Tris-HCl pH 8.0, 5 mM DTT, 0.025% BSA; non-denaturing 8% gel, 4 °C; autoradiography; only the binder purified. Background: Mobility shift assays separate free from complexed probe on a gel.

These are yes or no findings as the source states them, for the method shown. For some assays here: Binding seen in cells or lysates may run through a third protein. Some results given as binding are weak or reduced against the parent protein; the word gives no strength. For some assays here: Sequences can lack the tags named with a protein.

B1: endogenous PEX7 (protein, UniProt O00628 1-323)
chain: MSAVCGGAARMLRTPGRHGYAAEFSPYLPGRLACATAQHYGIAGCGTLLILDPDEAGLRLFRSFDWNDGLFDVTWSENNEHVLITCSGDGSLQLWDTAKAAGPLQVYKEHAQEVYSVDWSQTRGEQLVVSGSWDQTVKLWDPTVGKSLCTFRGHESIIYSTIWSPHIPGCFASASGDQTLRIWDVKAAGVRIVIPAHQAEILSCDWCKYNENLLVTGAVDCSLRGWDLRNVRQPVFELLGHTYAIRRVKFSPFHASVLASCSYDFTVRFWNFSKPDSLLETVEHHTEFTCGLDFSLQSPTQVADCSWDETIKIYDPACLTIPA
As to B1, in assay [1], the binding result is recorded as “binds”.

B2: HsPEX39(ΔC) (C-terminally truncated HsPEX39, residues 1–70) (domain or fragment, UniProt Q5I0X4 1-70)
chain: MERPRSPQCSAPASASASVTLAQLLQLVQQGQELPGLEKRHIAAIHGEPTASRLPRRPKPWEAAALAESL
For the molecule B2, the binding result in assay [2] is “binds”.
